The IC50 comes from the fitted curve, where viability falls to half of the control; a fit beyond the top or the lowest dose is shown as a bound at that dose. AUC, from the same fit, is the share of area under the viability curve across the 256-fold dose range; it is 1 without any effect and falls as sensitivity rises. For part of these data: Where the top dose is marked as inferred, it was calculated from the reported fits. For part of these data: An entry number marks a drug with two screens in the source, which often give different values.
What was measured:
Experiment in all cases: Viability of human cancer cell lines after 72 h of drug (GDSC screen)
[1] = compound: C#Cc1cccc(Nc2ncnc3cc(OC)c(OCCCCCCC(=O)NO)cc23)c1 [CUDC-101]; details: top dose 5.12 µM; top dose inferred
Description: (§1)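 Human cancer cell lines in 384-well plates, medium with 10% serum, drug for 72 h over a 256-fold dose range (nine 2-fold or five 4-fold steps up to the top dose). Adherent lines were fixed and stained with the nucleic acid dye Syto60, suspension lines read with resazurin; signal relative to control wells, capped at 0 and 100%. One two-parameter sigmoid per drug and line, fitted in a mixed model over all curves with the slope shared within a line.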

[2] = compound: COc1cc(F)c(F)c(Nc2ccc(I)cc2F)c1NS(=O)(=O)C1(C[C@H](O)CO)CC1 [RDEA119]; details: top dose 5 µM, top dose inferred
Description: as §1

[3] = compound: CC(C)(C)c1cc(NC(=O)Nc2ccc(-c3cn4c(n3)sc3cc(OCCN5CCOCC5)ccc34)cc2)no1 [AC220]; details: top dose 1.024 µM; top dose inferred
Description: as §1

[4] = compound: OC[C@H](Cc1ccccc1)Nc1nc(Oc2ccc3c(c2)CCC3)nc2c1ncn2Cc1ccc(-c2ccccc2)cc1 [QS11]; details: top dose 10.24 µM
Description: as §1

[5] = compound: NCC(=O)Nc1ccc(-n2nc(C(F)(F)F)cc2-c2ccc3c(ccc4ccccc43)c2)cc1 [OSU-03012]; details: top dose 16 µM; top dose inferred
Description: as §1

[6] = compound: Fc1cc(-c2ccnc(Nc3ccc(-n4cnc(N5CCOCC5)n4)cc3)n2)cc(N2CCOCC2)c1 [JNK-9L]; details: top dose 5.12 µM; top dose inferred
Description: as §1

Cell Line: NCI-H1417 (small cell lung carcinoma, suspension)
- AUC [1]: 0.491
- IC50 [1]: 0.302 µM
- AUC ([2]; screen: GDSC drug entry 1014): 0.75
- IC50 ([2]; screen: GDSC drug entry 1014): 1.91 µM
- AUC ([2]; screen: GDSC drug entry 1526): 0.527
- IC50 ([2]; screen: GDSC drug entry 1526): 0.377 µM
- AUC [3]: 0.959
- IC50 [3]: > 1.02 µM
- AUC [4]: 0.866
- IC50 [4]: > 10.2 µM
- AUC [5]: 0.818
- IC50 [5]: 11.4 µM
- AUC [6]: 0.871
- IC50 [6]: > 5.12 µM

Cell Line: NCI-H1437 (lung adenocarcinoma, adherent)
- AUC [1]: 0.742
- IC50 [1]: 1.63 µM
- AUC ([2]; screen: GDSC drug entry 1014): 0.553
- IC50 ([2]; screen: GDSC drug entry 1014): 0.439 µM
- AUC [3]: 0.904
- IC50 [3]: > 1.02 µM
- AUC [4]: 0.804
- IC50 [4]: 5.36 µM
- AUC [5]: 0.799
- IC50 [5]: 8.05 µM
- AUC [6]: 0.518
- IC50 [6]: 0.358 µM

Cell Line: NCI-H1651 (lung adenocarcinoma, adherent)
- AUC [1]: 0.829
- IC50 [1]: 3.52 µM
- AUC ([2]; screen: GDSC drug entry 1014): 0.959
- IC50 ([2]; screen: GDSC drug entry 1014): > 5 µM
- AUC ([2]; screen: GDSC drug entry 1526): 0.963
- IC50 ([2]; screen: GDSC drug entry 1526): > 5 µM
- AUC [3]: 0.986
- IC50 [3]: > 1.02 µM
- AUC [4]: 0.939
- IC50 [4]: > 10.2 µM
- AUC [5]: 0.711
- IC50 [5]: 4.15 µM
- AUC [6]: 0.654
- IC50 [6]: 0.885 µM

Cell Line: NCI-H1876 (small cell lung carcinoma, adherent)
- AUC [1]: 0.462
- IC50 [1]: 0.251 µM
- AUC ([2]; screen: GDSC drug entry 1014): 0.98
- IC50 ([2]; screen: GDSC drug entry 1014): > 5 µM
- AUC ([2]; screen: GDSC drug entry 1526): 0.974
- IC50 ([2]; screen: GDSC drug entry 1526): > 5 µM
- AUC [3]: 0.983
- IC50 [3]: > 1.02 µM
- AUC [4]: 0.968
- IC50 [4]: > 10.2 µM
- AUC [5]: 0.851
- IC50 [5]: 12.5 µM
- AUC [6]: 0.842
- IC50 [6]: 3.67 µM

Cell Line: NCI-H1915 (large cell lung carcinoma, adherent)
- AUC [1]: 0.509
- IC50 [1]: 0.338 µM
- AUC ([2]; screen: GDSC drug entry 1526): 0.633
- IC50 ([2]; screen: GDSC drug entry 1526): 0.732 µM
- AUC [3]: 0.986
- IC50 [3]: > 1.02 µM
- AUC [4]: 0.971
- IC50 [4]: > 10.2 µM
- AUC [5]: 0.866
- IC50 [5]: 14.7 µM
- AUC [6]: 0.597
- IC50 [6]: 0.595 µM

Cell Line: NCI-H2087 (lung adenocarcinoma, semi-adherent)
- AUC [1]: 0.621
- IC50 [1]: 0.706 µM
- AUC ([2]; screen: GDSC drug entry 1014): 0.756
- IC50 ([2]; screen: GDSC drug entry 1014): 1.82 µM
- AUC ([2]; screen: GDSC drug entry 1526): 0.744
- IC50 ([2]; screen: GDSC drug entry 1526): 1.67 µM
- AUC [3]: 0.985
- IC50 [3]: > 1.02 µM
- AUC [4]: 0.942
- IC50 [4]: > 10.2 µM
- AUC [5]: 0.729
- IC50 [5]: 4.76 µM
- AUC [6]: 0.505
- IC50 [6]: 0.331 µM

Cell Line: NCI-H3122 (lung adenocarcinoma, adherent)
- AUC [1]: 0.624
- IC50 [1]: 0.71 µM
- AUC ([2]; screen: GDSC drug entry 1014): 0.733
- IC50 ([2]; screen: GDSC drug entry 1014): 1.47 µM
- AUC [3]: 0.984
- IC50 [3]: > 1.02 µM
- AUC [4]: 0.843
- IC50 [4]: 7.58 µM
- AUC [5]: 0.575
- IC50 [5]: 1.62 µM
- AUC [6]: 0.412
- IC50 [6]: 0.182 µM

Cell Line: OE33 (oesophagus, adherent)
- AUC [1]: 0.52
- IC50 [1]: 0.367 µM
- AUC ([2]; screen: GDSC drug entry 1014): 0.88
- IC50 ([2]; screen: GDSC drug entry 1014): > 5 µM
- AUC ([2]; screen: GDSC drug entry 1526): 0.846
- IC50 ([2]; screen: GDSC drug entry 1526): 4.74 µM
- AUC [3]: 0.972
- IC50 [3]: > 1.02 µM
- AUC [4]: 0.924
- IC50 [4]: > 10.2 µM
- AUC [5]: 0.801
- IC50 [5]: 9.56 µM
- AUC [6]: 0.545
- IC50 [6]: 0.434 µM

Cell Line: OVCAR-3 (ovary, adherent)
- AUC [1]: 0.978
- IC50 [1]: > 5.12 µM
- AUC ([2]; screen: GDSC drug entry 1014): 0.953
- IC50 ([2]; screen: GDSC drug entry 1014): > 5 µM
- AUC ([2]; screen: GDSC drug entry 1526): 0.958
- IC50 ([2]; screen: GDSC drug entry 1526): > 5 µM
- AUC [3]: 0.987
- IC50 [3]: > 1.02 µM
- AUC [4]: 0.977
- IC50 [4]: > 10.2 µM
- AUC [5]: 0.861
- IC50 [5]: 15.9 µM
- AUC [6]: 0.586

Cell Line: OVCAR-4 (ovary, adherent)
- AUC [1]: 0.733
- IC50 [1]: 2.09 µM
- AUC ([2]; screen: GDSC drug entry 1014): 0.833
- IC50 ([2]; screen: GDSC drug entry 1014): > 5 µM
- AUC ([2]; screen: GDSC drug entry 1526): 0.81
- IC50 ([2]; screen: GDSC drug entry 1526): 4.43 µM
- AUC [3]: 0.958
- IC50 [3]: > 1.02 µM
- AUC [4]: 0.838
- IC50 [4]: > 10.2 µM
- AUC [5]: 0.691
- IC50 [5]: 4.52 µM
- AUC [6]: 0.562
- IC50 [6]: 0.512 µM

Cell Line: OVCAR-5 (ovary, adherent)
- AUC [1]: 0.561
- IC50 [1]: 0.484 µM
- AUC ([2]; screen: GDSC drug entry 1014): 0.48
- IC50 ([2]; screen: GDSC drug entry 1014): 0.273 µM
- AUC ([2]; screen: GDSC drug entry 1526): 0.487
- IC50 ([2]; screen: GDSC drug entry 1526): 0.286 µM
- AUC [3]: 0.978
- IC50 [3]: > 1.02 µM
- AUC [4]: 0.982
- IC50 [4]: > 10.2 µM
- AUC [5]: 0.832
- IC50 [5]: 13.3 µM
- AUC [6]: 0.446
- IC50 [6]: 0.221 µM

Cell Line: OVCAR-8 (ovary, adherent)
- AUC [1]: 0.406
- IC50 [1]: 0.182 µM
- AUC ([2]; screen: GDSC drug entry 1014): 0.865
- IC50 ([2]; screen: GDSC drug entry 1014): 3.67 µM
- AUC ([2]; screen: GDSC drug entry 1526): 0.886
- IC50 ([2]; screen: GDSC drug entry 1526): 4.53 µM
- AUC [3]: 0.98
- IC50 [3]: > 1.02 µM
- AUC [4]: 0.923
- IC50 [4]: > 10.2 µM
- AUC [5]: 0.701
- IC50 [5]: 3.44 µM
- AUC [6]: 0.531
- IC50 [6]: 0.386 µM

Cell Line: PC-3 (prostate, adherent)
- AUC [1]: 0.502
- IC50 [1]: 0.324 µM
- AUC ([2]; screen: GDSC drug entry 1014): 0.945
- IC50 ([2]; screen: GDSC drug entry 1014): > 5 µM
- AUC ([2]; screen: GDSC drug entry 1526): 0.977
- IC50 ([2]; screen: GDSC drug entry 1526): > 5 µM
- AUC [3]: 0.98
- IC50 [3]: > 1.02 µM
- AUC [4]: 0.934
- IC50 [4]: > 10.2 µM
- AUC [5]: 0.735
- IC50 [5]: 5.52 µM
- AUC [6]: 0.81
- IC50 [6]: 3.46 µM

Cell Line: PC-14 (lung adenocarcinoma, adherent)
- AUC [1]: 0.39
- IC50 [1]: 0.165 µM
- AUC ([2]; screen: GDSC drug entry 1014): 0.867
- IC50 ([2]; screen: GDSC drug entry 1014): 3.7 µM
- AUC ([2]; screen: GDSC drug entry 1526): 0.907
- IC50 ([2]; screen: GDSC drug entry 1526): > 5 µM
- AUC [3]: 0.989
- IC50 [3]: > 1.02 µM
- AUC [4]: 0.975
- IC50 [4]: > 10.2 µM
- AUC [5]: 0.748
- IC50 [5]: 4.68 µM
- AUC [6]: 0.634
- IC50 [6]: 0.717 µM

Cell Line: SBC-5 (small cell lung carcinoma, adherent)
- AUC [1]: 0.565
- IC50 [1]: 0.465 µM
- AUC ([2]; screen: GDSC drug entry 1014): 0.967
- IC50 ([2]; screen: GDSC drug entry 1014): > 5 µM
- AUC ([2]; screen: GDSC drug entry 1526): 0.949
- IC50 ([2]; screen: GDSC drug entry 1526): > 5 µM
- AUC [3]: 0.986
- IC50 [3]: > 1.02 µM
- AUC [4]: 0.917
- IC50 [4]: > 10.2 µM
- AUC [5]: 0.743
- IC50 [5]: 4.21 µM
- AUC [6]: 0.579
- IC50 [6]: 0.505 µM

Cell Line: SF268 (glioma, adherent)
- AUC [1]: 0.382
- IC50 [1]: 0.147 µM
- AUC ([2]; screen: GDSC drug entry 1014): 0.892
- IC50 ([2]; screen: GDSC drug entry 1014): > 5 µM
- AUC ([2]; screen: GDSC drug entry 1526): 0.898
- IC50 ([2]; screen: GDSC drug entry 1526): > 5 µM
- AUC [3]: 0.983
- IC50 [3]: > 1.02 µM
- AUC [4]: 0.884
- IC50 [4]: > 10.2 µM
- AUC [5]: 0.694
- IC50 [5]: 3.67 µM
- AUC [6]: 0.591
- IC50 [6]: 0.582 µM

Cell Line: SK-MEL-2 (melanoma, adherent)
- AUC [1]: 0.739
- IC50 [1]: 1.59 µM
- AUC ([2]; screen: GDSC drug entry 1014): 0.489
- IC50 ([2]; screen: GDSC drug entry 1014): 0.291 µM
- AUC ([2]; screen: GDSC drug entry 1526): 0.529
- IC50 ([2]; screen: GDSC drug entry 1526): 0.376 µM
- AUC [3]: 0.975
- IC50 [3]: > 1.02 µM
- AUC [4]: 0.987
- IC50 [4]: > 10.2 µM
- AUC [5]: 0.855
- IC50 [5]: 13.5 µM
- AUC [6]: 0.651
- IC50 [6]: 0.851 µM

Source: the supplement of paper PMC4967469
